The supplement of paper PMC11417369
The other results are listed elsewhere or left out.

The sequences below were run on PfSIP2 AP2 domain 1 (GST-tagged) (assay: gcPBM binding intensity (ln(normalized median fluorescence intensity)); higher = stronger DNA binding).
Procedure, shortened: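 GST-tagged P. falciparum DNA-binding domains, expressed in E. coli (about 25 μg on average), were applied for 1 h to an Agilent 4 × 180k array of primer-extended double-stranded 36-bp intergenic genomic probes plus negative controls. The binding buffer was 1× PBS with 1% milk, 0.2 mg/ml BSA, 0.5% salmon testes DNA and 0.03% Triton X-100. Bound protein was detected with Alexa488 anti-GST antibody and scanned at 488 nm. Binding intensity is the highest Masliner-normalised natural-log median intensity across replicate spots of either probe orientation.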

| Sequence | gcPBM binding intensity (ln) |
| --- | --- |
| ACATAGATCATAGGTTGTACGAAGGTATCCTTTATT [XGTACX_site694] | 6.81 |
| TCATATATATATATATGTACATATTTATGTATGTAT [XGTACX_site6291] | 7.29 |
| ACTTTTTGAATGTTTGCACACAAATCTCATAATTTT [CACACA_site358] | 7.43 |
| AAAAGGAGCAAATACAAAAAAATGAACAAAAAAAAA [CACACA_negctrl_site716] | 6.88 |
| TTTTTCTTTGAATAAATACACACGAGAAATGAAAGT [CACACA_site1688] | 7.99 |
| CATACCTATAGACACACACACACACGCACGCACAAA [CACACA_site6374] | 7.54 |
| TTTTGTAATGCTTTTTTTTTTTTTTTTTTTTTTTTT [CACACA_negctrl_site932] | 8.78 |
| AGTATTATTTACTGCGCATGCTATTTATATATATTA [TGCATGCA_site876] | 6.79 |
| AATAGAAATTATATAAACATAAATGAATAAATAAAT [CACACA_negctrl_site1817] | 6.69 |
| ACCATATATTAAAAAGTGCATTAAATATATAAATAT [GTGCAC_site9443] | 9.16 |
| AATTAAATGGATAAATGTACATATGTGAATATATTT [XGTACX_site84] | 6.98 |
| ATTTTATTTAAATACACACACATATATATATTATAT [CACACA_site4607] | 7.28 |
| CACAGACACCCATACACACACATACCCATATATATA [CACACA_site5023] | 7.53 |
| CTACATATGTATAATATGCACACGTCATTTTCCCCT [CACACA_site2107] | 7.24 |
| AATTATCAGGAATGATGTACTGAAATAAAAAAAAAA [XGTACX_site3280] | 6.93 |
| AAAAAAAAAAAAAAAGCACACATCATATTTTAATTC [CACACA_site9109] | 7.44 |
| ACACAAAAATGAAAAATGAAAAGGGTAATATATATA [CACACA_negctrl_site1490] | 7.73 |
| ATACTGTATAGTCGCACACAAAAATATAAAATATTT [CACACA_site6004] | 7.11 |
| TTACACAAGGATAAAAACATATGTATGATTATATAT [CACACA_negctrl_site654] | 6.98 |
| AAAATTTGAAAAAGGGGTACTTAATAAAAGTTTCAT [XGTACX_site932] | 6.99 |
| CATTCTACAATAAAAAGTACATATATATATTATATA [XGTACX_site921] | 7.35 |
| TCAAAAAAAATTTTAGTGCATATTTTAGTCAAAACA | 8.63 |

| Sequence | gcPBM binding intensity (ln) |
| --- | --- |
| ATTTAAATAATATGTACACACATTTAAAAAGTTATA [CACACA_site7347] | 6.94 |
| TAATATTTCGTTAAGTTTTAAAGAAAAAAAAAAAAA [CACACA_negctrl_site1253] | 6.96 |
| AAATTAAATGATAGAGCATGCGCTAAAAATGAGAAA [TGCATGCA_site937] | 6.89 |
| ACACATATAATAGTTACATGCAAAAATACTTTTATT [TGCATGCA_site785] | 6.97 |
| TTTTTATAACATAAAAGTACATATTTTTAATTTAAT [XGTACX_site4394] | 6.78 |
| AAATTAAAAATAATTACACACATAGAAAAGTTATAT [CACACA_site7137] | 7.12 |
| TTTTGCAAATATTACTGTACACAATCTCATATAATT [XGTACX_site2584] | 6.96 |
| TTTTCAGAAAGACATGCATACAAAAATAAAAAAGAT [TGCATGCA_site814] | 7.64 |
| TTATAGTAATAATAATGTACATTTATACACATATAT [XGTACX_site1965] | 7.05 |
| ATATATATATATATAACATGCAAAGTTCAAAAAAAA [TGCATGCA_site943] | 9.22 |
| AAAAAAAACAGACACACACACACATATACATACATA [CACACA_site2665] | 6.96 |
| TTTTTTTTATTATAAATATATATATTATAAAACGAA [XGTACX_negctrl_site189] | 7.46 |
| TTCTTTGTTTTTTTTTTTTTTTTAAAAGATAATATT [XGTACX_negctrl_site381] | 6.99 |
| TTTATTTTTCATTGGGGTACACAAGTTTATTTTTGA [XGTACX_site4262] | 7.39 |
| ATATCGTTTTTAAATTGTACATTCACTATAGAATAA [XGTACX_site6442] | 7.31 |
| ATATATTTATTTTGTGCACACAACGCAAACCTTTTA [CACACA_site3508] | 8.68 |
| ATTTTTTCTTTTCGATGTACCCTTCTTATTCTTTAT [XGTACX_site3782] | 7.06 |
| TATATCGCCTTCAAAAGTACTCATATAAAAAAAAAA [XGTACX_site7123] | 7.13 |
| AAAAAAAAAAAAAAATGTACTTTTATTATTAATATA [XGTACX_site6357] | 7.11 |
| TTTGAACTTTTATATACACACATTATTATAGTATAG [CACACA_site6851] | 7.02 |
| AGTTCATATTTAAAAAGTACATATTTAAAAACTTCT [XGTACX_site4882] | 7.16 |
| ATGCATATATTTATGTGTACATATATTTGTAGGGGG [XGTACX_site6063] | 8.24 |
